{"source": "PubChem BioAssay AID1645886", "about": "(National Center for Advancing Translational Sciences (NCATS), 2021)", "note": "The campaign covered roughly 16,000 compounds. About 260 (1.6%) were called active. Inconclusive results, whose numbers are uncertain, are shown with a selection of clear calls. Calls follow the shape of the dose curve; as a rule, active = well fitted inhibition curve with a large enough effect; inconclusive = small, poorly fitted or top-dose-only effect; inactive = no such curve, though single readings can be large or run the other way. No potency is given beside an inconclusive call; the fits are too rough. Potency is read from the fitted curve at half-maximal effect; tags tell the direction and shape of the fitted curve.", "data": [{"target": "Rap guanine nucleotide exchange factor 4 (Homo sapiens) (UniProt Q8WZA2)", "sequence (Q8WZA2 whole entry, looked up)": "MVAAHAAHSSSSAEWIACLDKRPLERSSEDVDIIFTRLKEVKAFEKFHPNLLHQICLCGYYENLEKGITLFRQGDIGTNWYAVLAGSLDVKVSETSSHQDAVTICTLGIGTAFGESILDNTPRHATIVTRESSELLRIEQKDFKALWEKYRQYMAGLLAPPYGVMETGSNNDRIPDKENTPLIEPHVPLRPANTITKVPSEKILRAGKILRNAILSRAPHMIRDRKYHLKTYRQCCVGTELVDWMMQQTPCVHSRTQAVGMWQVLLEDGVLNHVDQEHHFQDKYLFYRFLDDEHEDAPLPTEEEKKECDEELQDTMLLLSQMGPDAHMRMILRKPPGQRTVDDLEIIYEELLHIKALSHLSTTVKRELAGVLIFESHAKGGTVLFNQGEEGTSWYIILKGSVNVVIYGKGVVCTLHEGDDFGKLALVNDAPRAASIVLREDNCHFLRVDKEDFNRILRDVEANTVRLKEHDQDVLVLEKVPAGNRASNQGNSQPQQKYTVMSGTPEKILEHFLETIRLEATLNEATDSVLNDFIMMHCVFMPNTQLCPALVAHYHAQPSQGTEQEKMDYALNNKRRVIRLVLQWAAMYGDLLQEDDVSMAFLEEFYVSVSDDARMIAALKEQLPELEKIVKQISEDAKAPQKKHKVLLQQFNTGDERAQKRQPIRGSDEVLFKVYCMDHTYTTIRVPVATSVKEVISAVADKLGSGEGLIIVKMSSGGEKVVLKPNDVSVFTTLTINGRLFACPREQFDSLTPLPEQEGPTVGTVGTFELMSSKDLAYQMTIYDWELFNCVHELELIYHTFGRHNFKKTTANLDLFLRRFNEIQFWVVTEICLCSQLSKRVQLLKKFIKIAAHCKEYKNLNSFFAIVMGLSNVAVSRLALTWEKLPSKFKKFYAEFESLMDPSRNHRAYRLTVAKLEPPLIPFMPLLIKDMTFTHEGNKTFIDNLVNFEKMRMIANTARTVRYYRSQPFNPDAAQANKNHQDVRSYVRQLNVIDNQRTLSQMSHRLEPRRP", "assay": "Validation qHTS for antagonist of cAMP-regulated guanine nucleotide exchange factor 4 (EPAC2); also: nearly all actives have a fitted effect of over 40% in size", "conditions": "EPAC2 Rap1B BODIPY-GDP exchange, fluorescence; activity, negative = inhibition: at 112 µM (top of the series)", "excerpt": "Principle Investigator: Xiaodong Cheng Ph.D. The University of Texas Medical Branch, […], TX MLPCN Grant: NS066510 In multi-cellular eukaryotic organisms, the effects of cAMP are transduced by two ubiquitously-expressed intracellular cAMP receptors, the classic protein kinase A/cAMP-dependent protein kinase (PKA/cAPK) and the more recently discovered exchange protein directly activated by cAMP/cAMP-regulated guanine nucleotide exchange factor (EPAC/cAMP-GEF). Both PKA and EPAC are ubiquitously expressed in all tissues, and an increase in intracellular cAMP levels will lead to the activation of both PKA and EPAC. Therefore, careful dissections of the individual role and relative contribution of EPAC and PKA within the overall cAMP signaling in various model systems are critical for further elucidating the mechanism of cAMP signaling. To date no EPAC-specific antagonists and agonist, as well as isoform-specific agonists have been reported, and developing EPAC-specific pharmacological probes to determine the physiological functions that EPAC play in the overall cAMP-mediated signaling remains a major challenge within the research field. Furthermore, identified regulators of EPAC may lead to new mechanism-based therapeutic strategies specifically targeting the EPAC / cAMP-signaling components as EPAC has been implicated to play important roles in major human pathological conditions such as diabetes, heart disease, and cancer. This qHTS will be used to screen the Molecular Libraries Small Molecule Repository (MLSMR) as a concentration-titration series using the NCGC unique quantitative screening (qHTS) platform to find activators for EPAC1. In addition, this assay will also be used as a counterscreen for the EPAC2 qHTS. This fluorescent based assay is developed and validated for EPAC1 that measures exchange using EPAC effector Rap1 complex with BODIPY-GDP, a GDP analog with a tethered fluorophores. Activators are identified by monitoring the change in fluorescence signal as the exchanged free BODIPY-GDP has a reduced fluorescence compared to Rap1-bound BODIPY-GDP. Increase in signal (activation) is the desired outcome for the EPAC1 agonist while no activity in this assay is desired for the EPAC2 agonist counterscreen. Reference: [1] de Rooij, J., Zwartkruis, F. J., Verheijen, M. H., Cool, R. H., Nijman, S. M., Wittinghofer, A., and Bos, J.L. (1998) Nature 396, 474-477.\nBriefly, three uL of reagents (100 nM EPAC2, 250 nM RAP1B-BODIPY-GDP, 50 uM GDP) were dispensed into a 1536-well Greiner black solid-bottom medium binding assay plate. Controls and test compounds (23 nL) were transferred to the plate via a Kalypsys pin tool equipped with a 1536-pin array. The plates were centrifuged at 1,000 rpm for 15 seconds followed by 5 minute incubation at room temperature. The assay plates were read at 5 minute intervals for 30 minutes in the ViewLux plate reader using 480nm excitation and 540nm emission filters. The results were normalized to the agonist positive control of 6.5 mM cAMP.", "values": [{"smiles": "OCCN(CCO)c1ccc(/C=C/c2ccnc3ccccc23)cc1", "activity, negative = inhibition": "inactive: -22%"}, {"smiles": "CCC[N+](C)(C)c1ccc(/C=C/c2ccncc2)cc1", "Potency": "inconclusive [inhibitor, partial curve, poor fit]"}, {"smiles": "O=c1c(CCc2ccccc2)nc2cnc(N3CCNCC3)nc2n1Cc1cccs1", "activity, negative = inhibition": "inactive: -10.5%"}, {"smiles": "CC(=O)Nc1ccc(/C=C/c2ccccn2)cc1", "Potency": "inconclusive [inhibitor, single point]"}, {"smiles": "COc1ccc(Oc2ncc3ncc(=O)n(Cc4cccc(OC)c4)c3n2)cc1", "Potency": "inconclusive [inhibitor, full curve, poor fit]"}, {"smiles": "CC1=C(C(=O)OCc2ccccc2)N2C(=O)[C@@H](NC(=O)COc3ccccc3)[C@H]2SC1", "activity, negative = inhibition": "inconclusive: -31.3% [inhibitor]"}, {"smiles": "C/C(=C\\c1ccco1)CN1CCOc2ccc(CN3CCC(Oc4cccnc4)CC3)cc2C1", "activity, negative = inhibition": "inactive: -6.87%"}, {"smiles": "COc1c(CC(=O)c2cc3c(cc2O)OC(C)(C)C(O)C3)ccc2c1C=CC(C)(C)O2", "note": "(stereo not drawn)", "Potency": "inconclusive [inhibitor, partial curve, poor fit]"}, {"smiles": "CCOC(=O)CN(C)C(=O)c1cnn(-c2ncc3c(n2)-c2ccccc2CCC3)c1C", "Potency": "inconclusive [inhibitor, partial curve, poor fit]"}, {"smiles": "CN1CCN(C2Cc3ccccc3Sc3ccc(Cl)cc32)CC1", "note": "(stereo not drawn)", "Potency": "inconclusive [inhibitor, full curve, poor fit]"}, {"smiles": "NS(=O)(=O)c1cc2c(cc1Cl)NC(C(Cl)Cl)NS2(=O)=O", "note": "(stereo not drawn)", "Potency": "inconclusive [inhibitor, single point]"}, {"smiles": "Cc1csc(SCC(=O)N2CCOc3ccc(C(O)C4CCCCC4)cc3C2)n1", "note": "(stereo not drawn)", "Potency": "inconclusive [inhibitor, partial curve, poor fit]"}, {"smiles": "CCC1CN(CCNC(=O)c2scc3c2OCCO3)Cc2cc(OC)ccc2O1", "note": "(stereo not drawn)", "Potency": "inconclusive [inhibitor, single point]"}, {"smiles": "C/C(=C(/CCO)SSCC1CCCO1)N(C=O)Cc1cnc(C)nc1N", "note": "(stereo not drawn)", "Potency": "inconclusive [inhibitor, full curve, poor fit]"}, {"smiles": "CN(C)C(=O)c1ccc(/C=C/c2ccnc3ccccc23)cc1", "activity, negative = inhibition": "inactive: 19.8%"}, {"smiles": "COc1ccccc1C1CN(Cc2cccc(O)c2)Cc2ccccc2O1", "note": "(stereo not drawn)", "Potency": "inconclusive [inhibitor, full curve, poor fit]"}, {"smiles": "O=C1[C@H]2[C@H](C=CC[C@H]2C(=O)N2CCN(c3ccccc3)CC2)CCN1Cc1ccccc1", "Potency": "inconclusive [inhibitor, partial curve]"}, {"smiles": "Cc1noc(C)c1-c1cc(Nc2ccc(F)cc2)ncn1", "Potency": "inconclusive [inhibitor, partial curve, poor fit]"}]}]}
